According to PMC6919601, “Identification of Plasmodium dipeptidyl aminopeptidase allosteric inhibitors by high throughput screening” (PLoS ONE, 2019):
The campaign covered roughly 110,000 compounds. About 230 (0.21%) showed an effect of 50% or more. The list shows a part of the results.

The molecules below were run against DPAP1 (Plasmodium falciparum, UniProt Q8IIJ9) (assay: primary screen, percent inhibition; read by cleavage of a fluorogenic dipeptide substrate; higher = more effect of the substance).
Chain of DPAP1 (Q8IIJ9 whole entry, looked up): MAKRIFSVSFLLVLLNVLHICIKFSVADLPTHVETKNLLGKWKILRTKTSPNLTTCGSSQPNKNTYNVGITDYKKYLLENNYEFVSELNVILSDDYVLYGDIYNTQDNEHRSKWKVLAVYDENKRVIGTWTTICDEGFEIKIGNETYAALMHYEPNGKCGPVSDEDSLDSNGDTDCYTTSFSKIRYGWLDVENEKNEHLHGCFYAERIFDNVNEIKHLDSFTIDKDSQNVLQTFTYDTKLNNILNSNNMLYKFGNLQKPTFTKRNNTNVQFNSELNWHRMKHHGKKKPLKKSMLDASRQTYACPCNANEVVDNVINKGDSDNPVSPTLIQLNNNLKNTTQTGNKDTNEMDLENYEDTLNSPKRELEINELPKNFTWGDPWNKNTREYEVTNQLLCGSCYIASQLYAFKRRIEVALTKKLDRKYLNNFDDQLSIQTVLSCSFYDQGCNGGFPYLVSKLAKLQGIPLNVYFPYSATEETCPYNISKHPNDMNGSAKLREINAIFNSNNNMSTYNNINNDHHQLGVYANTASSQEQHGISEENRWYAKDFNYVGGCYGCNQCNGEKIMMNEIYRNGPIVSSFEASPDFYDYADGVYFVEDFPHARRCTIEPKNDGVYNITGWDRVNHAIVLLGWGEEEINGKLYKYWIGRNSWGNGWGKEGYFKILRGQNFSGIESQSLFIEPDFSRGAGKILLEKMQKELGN
Parameters: species or system P. falciparum D10 trophozoite lysates; single well
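Note: 30 min substrate incubation versus DMSO and 10 µM JCP410 controls.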

SMILES | % Inhibition @ 10 uM
COCCNC(=O)CCCc1cc(-c2ccc(OC)cc2)on1 | 0.44%
CCc1ccccc1NC(=O)c1ccccc1[N+](=O)[O-] | 9.41%
Cc1nc(/N=C(\N)Nc2ccc3c(c2)OCCO3)nc(O)c1C | 0.0265%
COc1ccc(CCNC(=O)c2sc3nc(-c4ccncc4)ccc3c2N)cc1OC | -2.91%
CC1CCCCN1C(=O)Nc1cn(C)c(=O)c2ccccc12 (stereo not shown) | 3.96%
CCCn1c2ccc(C)cc2c2nnc(SCCN3CCOCC3)nc21 | 3.36%
Clc1cccc(N2CCN(C/C=C/c3ccccc3)CC2)c1 | 2.1%
Cc1ccc(S(=O)(=O)/N=C(\N)Nc2nc(C)c3cc(C)cc(C)c3n2)cc1 | 0.032%
CCOC(=O)C1=C(CN(C)Cc2ccccc2)NC(=O)NC1c1ccc(Cl)cc1 (stereo not shown) | -1.03%
CC1=C(C)CC(C(=O)N2CCN(C/C=C/c3ccccc3)CC2)C(C(=O)O)C1 (stereo not shown) | -5.26%
COC(=O)C1=C(C)N(Cc2ccc(OC)cc2)C(=O)C1 | -1.92%
CCOC(=O)c1ccc(-n2cc3c(c2-c2ccc(OC)cc2)c(=O)n(C)c(=O)n3C)cc1 | -0.386%
COc1ccccc1OCC(=O)Nc1nc(-c2ccc(S(=O)(=O)N3CCOCC3)cc2)cs1 | 3.56%
Cc1ccc(C2OC3(C(=O)c4ccccc4C3=O)C3C(=O)N(Cc4ccccc4)C(=O)C23)cc1 (stereo not shown) | 1.61%
CN(C)CCCNC1CCc2ccccc2C1 (stereo not shown) | -7.02%
Nc1nc2c(s1)CCc1c-2no[n+]1[O-] | -7.92%
CCC(C(=O)NC(C)c1ccc2c(c1)OCCO2)n1ncn2c(cc3occc32)c1=O (stereo not shown) | 3%
CCC(COc1ccc(-c2ccc(OC)cc2)nn1)NC(=O)c1cnsc1 (stereo not shown) | -6.56%
Cc1cc(S(=O)(=O)NCCC23CC4CC(CC(C4)C2)C3)ccc1Cl | 0.0289%
Cc1noc(C(=O)Nc2cccnc2Cl)c1Cl | -7.13%
CC(CNC(=O)c1cc(-c2ccc(Br)cc2)[nH]n1)c1ccccc1 (stereo not shown) | 2.79%
Cc1ccc(N(CCO)S(=O)(=O)c2ccc(NC3=NS(=O)(=O)c4ccccc43)cc2)cc1 | 2.76%
Cc1nc(SCC(=O)c2ccccc2)c(C#N)c(C)c1Cl | -0.25%
CCc1ccc(-n2c(C)nnc2SCc2nc(-c3ccc(OC)c(OC)c3)no2)cc1 | -0.45%
CCN(c1ccccc1)S(=O)(=O)c1ccc(NC(=O)c2ccc(F)cc2)cc1 | 8.18%

SMILES | % Inhibition @ 10 uM
CN1C(=O)c2ccccc2C(C(=O)NCc2ccco2)C1c1c[nH]c2ccccc12 (stereo not shown) | -5.2%
CN(Cc1cccc(Cl)c1)CC(O)c1ccccc1 (stereo not shown) | -3.5%
CCCCC(=N)C1=C(O)CC(C)(C)CC1=O | 2.08%
O=S(=O)(Nc1ccccc1)c1ccc2c(c1)Cc1cc(S(=O)(=O)Nc3ccccc3)ccc1-2 | 0.913%
COc1cc(C2CC(=O)NC(C)=C2C(=O)OCC2CCCCC2)c(OC)cc1Br (stereo not shown) | 4.23%
COC(=O)Nc1ccc2c(c1)N(C(=O)CCN1CCN3CCCC3C1)c1ccccc1S2 (stereo not shown) | -0.865%
Cc1nc2c(-c3ccccc3)c(C)nn2c(C)c1CCC(=O)NCc1ccco1 | -6.03%
Cc1cc(C)c(C)c(S(=O)(=O)NCc2ccc(C(=O)N3CC(C)OC(C)C3)cc2)c1C (stereo not shown) | 2.17%
NC(=O)c1c(NC(=O)c2cccc(C(F)(F)F)c2)sc2c1CCCC2 | 1.03%
CCn1c(C(=O)N2CCC(C(=O)NC(C)CCc3ccccc3)CC2)cc2sccc21 (stereo not shown) | 3.4%
CC(C)c1ccc(OCC(=O)Nc2ccc(S(=O)(=O)Nc3nccs3)cc2)cc1 | -3.26%
NC(=O)CSc1nc(-c2ccccc2)nc2c1Cc1c(ccc3ccccc13)O2 | 2.04%
COCCn1c(C)cc(C(=O)CSc2ncnc3scc(-c4ccccc4)c23)c1C | -2.85%
COc1cc(/C=C2/C(=O)ON=C2C)cc(Br)c1OCc1ccccc1F | -3.96%
C[C@H](NC(=O)Cc1ccccc1)c1ccccc1 | -1.59%
O=C(NC1CCN(Cc2ccccc2)CC1)c1ccc(CS(=O)c2ccccc2Cl)o1 (stereo not shown) | -0.716%
O=C1CC(SCc2ccccc2)C(=O)N1c1ccc(Br)cc1 (stereo not shown) | -1.98%
CC1CCCCN1C(=O)C(Cc1ccccc1)N1C(=O)C2CCCCC2C1=O (stereo not shown) | 3.54%
CC(/C=C(\O)c1ccccc1)=N\c1ccc(C(=O)Nc2cccc3ccccc23)cc1 | 0.937%
CC1=C(C(=O)Nc2ccccc2)C(c2ccc(Cl)cc2)NC(S)=N1 (stereo not shown) | -1.66%
Nc1nonc1C(=O)NCCNCc1ccsc1 | 4.83%
CC(=O)Nc1ccc(CNc2ccc(C)cc2)cc1 | 4.08%
Sc1nc2ccccc2n2c(S)nnc12 | -7.42%
CC(C)NC(=O)CCCN1C(=O)c2ccccc2Sc2ncccc21 | 2.33%
